Experimental data reported in patent US4808630A, “Method of treating psychotic illnesses” (United States of America, priority 1988, dated 1989).

Key:
[1] = HAL and OH-HAL concentrations in serum, red blood cells and brain of rats after HAL followed by isotretinoin (HPLC); settings: for Brain ratio (oh-h/hal) / Serum ratio (oh-h/hal) / Brain Haloperidol / Serum Haloperidol / RBC Haloperidol: HAL 1 mg/kg s.c.; for RBC Haloperidol / RBC ratio (oh-h/hal): red blood cells
[2] = system: patient diagnosed as having schizophrenia; assay: Clinical observation and neuropsychological evaluation in schizophrenic patients
[3] = cited from earlier work
[4] = system: patient diagnosed as having schizophrenia; assay: Positive symptoms scale of the Brief Psychiatric Rating Scale (PosBPRS) in a schizophrenic patient; format: in vivo, human; settings: subject 2
Source text: The isotretinoin then was stopped.
The isotretinoin was again stopped.

mice = assay: Gross motor exploratory activity of mice in a novel environment (tranquilizing effect, photocell counts); format: in vivo, Female albino laboratory mice; settings: 2 hours after 40 mg/kg i.p., 30 minutes, arbitrary units, MANOVA p < .02, p < .05; for Horizontal counts: control 128 ± 48 (tretinoin), 194 ± 24 (isotretinoin); for Vertical counts: control 453 ± 244 (tretinoin), 683 ± 97 (isotretinoin)
Method: Female albino laboratory mice from the National Institute of Health stock weighing between 20 to 30 grams were maintained in home cages in groups of less than ten. They were injected intraperitoneally with a suspension of retinoic acid in 10% Tween 80 in physiologic saline and returned to their home cage for two hours. They were then placed individually in an unfamiliar plexiglass chamber where their gross motor activity was automatically counted by two grids of photocells: one for horizontal and one for vertical (rearing) activity. The total count accumulated over 30 minutes in a given orientation (horizontal or vertical) is a measure in arbitrary units of the gross motor exploratory activity of the mouse in this novel environment. Because baseline activity varies from day to day, control values are given for each trial.

[5] = isotretinoin 0 mg/kg, mean ± standard error
[6] = isotretinoin 1 mg/kg i.p., mean ± standard error
[7] = isotretinoin 5 mg/kg i.p., mean ± standard error
[8] = subject 2, second period of isotretinoin treatment

OC(CCCN1CCC(O)(c2ccc(Cl)cc2)CC1)c1ccc(F)cc1 (stereo not drawn) [Oh-haloperidol, 4-(4-(4-chlorophenyl)-4-hydroxy-piperdinyl)-1-(4-fluorophenyl)-1-butanol]
overall effect of isotretinoin on brain OH-HAL values ([1]; F(3,31)=8.27, p=0.0003, no individual mean significant): significantly altered overall | overall effect of isotretinoin on serum OH-HAL concentrations ([1]; F(3,31)=9.56, p=0.0001): altered significantly | overall effect of isotretinoin on red blood cell OH-HAL concentrations ([1]; F(3,31)=11.1, p=0.001): significantly altered overall

O=C(CCCN1CCC(O)(c2ccc(Cl)cc2)CC1)c1ccc(F)cc1 [haloperidol, 4-[4-(p-chlorophenyl)-4-hydroxy-piperidino]-4'-fluorobutyrophenone]
parkinsonian symptoms ([2]; subject 2, on haloperidol 30 mg/day (0.4 mg/Kg/day)): developed parkinsonian symptoms | overall effect of isotretinoin on red blood cell HAL concentrations ([1]; F(3,31)=1.71, p=0.186): not significantly altered overall | overall effect of isotretinoin on serum HAL concentrations ([1]; F(3,31)=2.96, p=0.0473): affected significantly | overall effect of isotretinoin on serum ratio OH-HAL to HAL ([1]; F(3,31)=3.38, p=0.0306): significantly altered | overall effect of isotretinoin on brain ratio of OH-HAL to HAL ([1]; F(3,31)=4.86, prob>F=0.0069): significantly changed | overall effect of isotretinoin on brain HAL ([1]; F(3,31)=9.75, p=0.0001): significantly altered overall | overall effect of isotretinoin on red blood cell ratio OH-HAL to HAL ([1]; F(3,31)=12.66, p=0.0001): significantly altered overall | Brain ratio (oh-h/hal) ([1]; isotretinoin 0 mg/kg): 0.216 | Serum ratio (oh-h/hal) ([1]; isotretinoin 0 mg/kg): 0.038 | Brain Haloperidol [1, 5]: 465 ± 44 ng/mL | Serum Haloperidol ([1]; isotretinoin 0 mg/kg, mean ± standard error, N=11): 44.8 ± 7.1 ng/mL | Brain ratio (oh-h/hal) ([1]; isotretinoin 1 mg/kg i.p.): 0.15 | Serum ratio (oh-h/hal) ([1]; isotretinoin 1 mg/kg i.p.): 0.060 | Brain Haloperidol [1, 6]: 413 ± 31 ng/mL | Serum Haloperidol ([1]; isotretinoin 1 mg/kg i.p., mean ± standard error, N=8): 67.5 ± 8.0 ng/mL | Serum ratio (oh-h/hal) ([1]; isotretinoin 5 mg/kg i.p.): 0.044 | Brain ratio (oh-h/hal) ([1]; isotretinoin 5 mg/kg i.p., * p < .05): 0.13 | Brain Haloperidol [1, 7]: 344 ± 26 ng/mL | Serum Haloperidol ([1]; isotretinoin 5 mg/kg i.p., mean ± standard error, N=8): 73.3 ± 17.1 ng/mL | Brain ratio (oh-h/hal) ([1]; isotretinoin 10 mg/kg i.p.): 0.19 | Serum ratio (oh-h/hal) ([1]; isotretinoin 10 mg/kg i.p.): 0.029 | Serum Haloperidol ([1]; isotretinoin 10 mg/kg i.p., mean, standard error 19.0, N=8, * p < .05): 97.5 ng/mL | Brain Haloperidol ([1]; isotretinoin 10 mg/kg i.p., mean, standard error 90, * p < .05): 739 ng/mL | RBC Haloperidol [1, 5]: 13.4 ± 2.4 ng/mL | RBC ratio (oh-h/hal) ([1]; isotretinoin 0 mg/kg, upper limit): < .15 | RBC Haloperidol [1, 6]: 18.1 ± 4.8 ng/mL | RBC ratio (oh-h/hal) ([1]; isotretinoin 1 mg/kg i.p., upper limit, * p < .05): < .11 | RBC Haloperidol [1, 7]: 33.8 ± 16.8 ng/mL | RBC ratio (oh-h/hal) ([1]; isotretinoin 5 mg/kg i.p., upper limit, * p < .05): < .06 | RBC ratio (oh-h/hal) ([1]; isotretinoin 10 mg/kg i.p.): 0.09 | RBC Haloperidol ([1]; isotretinoin 10 mg/kg i.p., mean, standard error 8.8): 37.2 ng/mL | blood level of haloperidol (human, in vivo, 0.2 mg/kg/day): 13.7 ng/mL | serum haloperidol level (human, in vivo, 0.4 mg/kg/day): 19.1 ng/mL | serum haloperidol concentration (subject 2, isotretinoin 40 mg/day, haloperidol increased to 60 mg/day (0.8 mg/Kg/day), four successive samples over six weeks): unmeasurable | haloperidol levels after discontinuation (subject 2, within one week of discontinuing haloperidol, benztropine and isotretinoin): fell to zero within one week | HAL concentrations with concurrent anticonvulsant drugs ([3]; concurrent carbamazepine or phenobarbitol): decrease | metabolite of HAL ([3]; humans, reduced form): hydroxy-haloperidol (OH-HAL) | PosBPRS average over the seven days prior to medication change ([4]; four weeks on haloperidol 30 mg/day, drug free 1.83): 1.00

CC1=C(/C=C/C(C)=C/C=C/C(C)=C\C(=O)O)C(C)(C)CCC1 [isotretinoin, 13-cis-retinoic acid]
change in clinical condition ([2]; subject 1, after starting isotretinoin 0.6 mg/Kg/day with haloperidol 0.2 mg/Kg/day): no adverse change in their clinical condition | neuropsychological performance (simple and complex memory, verbal fluency, attention, cognitive efficiency) ([2]; subject 2, 5 weeks after second isotretinoin course discontinued): dramatic declines to below pretreatment levels | clinical presentation after isotretinoin discontinued ([2]; subject 2, second isotretinoin course (alone) stopped, noticeable by three days): worsened with flattening of affect, loss of motivation, and increasing social withdrawal | block design [2, 8]: declined | verbal fluency [2, 8]: improved | neuropsychological performance levels ([2]; subject 2, second period of isotretinoin treatment vs end of preceding three week drug free period): no significant changes in performance levels | clinical state after stopping isotretinoin ([2]; subject 2, within 2 days of stopping isotretinoin, still on haloperidol 60 mg/day): more parkinsonian and more irritable | effect on HAL and OH-HAL concentrations in rats ([1]; ISOT given in DMSO, serum, brain and red blood cells): increases the concentrations of HAL and OH-HAL in the serum, brain, and red blood cells | PosBPRS ([4]; 5 weeks drug free after isotretinoin alone was discontinued): 2.37 | PosBPRS ([4]; isotretinoin 40 mg/day with haloperidol 60 mg/day): 0.55 | PosBPRS ([4]; over three weeks after haloperidol, benztropine and isotretinoin discontinued): 1.12 | PosBPRS ([4]; six weeks on isotretinoin restarted without other medications): 0.35 | Horizontal counts (mice): 117 ± 56 | Vertical counts (mice): 371 ± 216

CC1=C(/C=C/C(C)=C/C=C/C(C)=C/C(=O)O)C(C)(C)CCC1 [tretinoin, 13-trans-retinoic acid]
Horizontal counts (mice): 72 ± 36 | Vertical counts (mice): 181 ± 81
